# The campaign covered roughly 370,000 compounds. About 150 (0.041%) were called active. Inconclusive means that the source gave no clear call. Such entries were picked first, then a sample of the others. Calls come from the whole dose curve; as a rule, active = well fitted inhibition curve with a large enough effect; inconclusive = small, poorly fitted or top-dose-only effect; inactive = flat fitted curve, though single readings scatter. Potencies of inconclusive entries are left out as doubtful fits.
# Target: Beta-lactamase (Escherichia coli (strain K12)) (UniProt P00811)
# Chain of UniProt P00811 (P00811 whole entry, looked up): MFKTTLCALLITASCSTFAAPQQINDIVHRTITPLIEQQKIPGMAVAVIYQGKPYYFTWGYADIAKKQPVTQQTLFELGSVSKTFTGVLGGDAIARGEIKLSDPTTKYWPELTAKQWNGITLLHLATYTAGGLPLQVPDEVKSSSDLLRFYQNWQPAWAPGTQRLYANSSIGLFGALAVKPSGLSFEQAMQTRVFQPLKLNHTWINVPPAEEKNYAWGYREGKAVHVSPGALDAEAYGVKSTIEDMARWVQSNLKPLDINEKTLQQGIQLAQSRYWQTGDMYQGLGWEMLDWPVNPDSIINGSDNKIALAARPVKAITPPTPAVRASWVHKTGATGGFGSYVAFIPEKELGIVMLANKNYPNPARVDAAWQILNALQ
# Experiment: qHTS Inhibitors of AmpC Beta-Lactamase (assay with detergent); note: nearly all actives have a fitted effect of over 25% in size
# Details: AmpC hydrolysis of nitrocefin, absorbance 480 nm, 0.01% Triton; series mostly up to 114 µM
# Summary of the method: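 AmpC (5.3 nM in the dispensed reagent) in 20 mM phosphate pH 7.0 with 0.01% (detergent screen) or 0.0001% Triton X-100 was preincubated with compounds for 15 min at room temperature. Nitrocefin was then added from an 800 uM solution, and hydrolysis was followed at 480 nm.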
# Potency is the fitted concentration of half-maximal effect; tags give direction and shape of the fitted curve.
row,SMILES,Potency
1,Cc1cc(C)n(Cc2ccc(Cl)cc2Cl)c(=O)c1S(=O)(=O)c1ccccc1,inactive
2,Cc1ccc(C)c(S(=O)(=O)N2CCN(C(=O)CCNC(=O)c3ccc(Br)cc3)CC2)c1,"inconclusive [inhibitor, partial curve, poor fit]"
3,COC(=O)C(C(=O)OC)c1ncccc1[N+](=O)[O-],"inconclusive [inhibitor, full curve, poor fit]"
4,N#C/C(=C1/CCCCCN1)c1nc2ccccc2[nH]1,inactive
5,Cc1ccc(C)c(OCCC(=O)NNC(=O)c2ccccc2F)c1,"inconclusive [inhibitor, partial curve]"
6,COC(=O)[C@@]1(Cc2ccc(OC)cc2)[C@H]2c3cc(C(=O)N(C)C)n(Cc4ccc(OC(F)(F)F)cc4)c3C[C@H]2CN1C(=O)c1ccccc1,"inconclusive [inhibitor, partial curve, poor fit]"
7,O=S(=O)(O)Oc1c[nH]c2ccccc12,"inconclusive [inhibitor, full curve]"
8,COc1cccc(-c2sc3ccc(OC)cc3c2C#CC(C)(C)O)c1,inactive
9,Fc1ccccc1CN1CCN(c2ncccn2)CC1,"inconclusive [inhibitor, partial curve, poor fit]"
10,O=C(Nc1ccccc1Cl)N1CCN(c2ccc3nnc(-c4ccc(F)cc4)n3n2)CC1,"inconclusive [inhibitor, full curve, poor fit]"
11,CCN(CC)CCOC(=O)c1ccc(NC(=O)c2cn(-c3ccccc3)nc2-c2cccs2)cc1,"inconclusive [inhibitor, full curve, poor fit]"
12,COc1cc(-c2nc3c4ccccc4nc(=S)n3[nH]2)cc(OC)c1OC,"inconclusive [inhibitor, partial curve, poor fit]"
13,Cc1nc2ccccc2c(=O)n1-c1ccc(NC(=O)C(F)(F)F)cc1,inactive
14,O=C(Nc1cc(C(F)(F)F)ccc1N1CCCCC1)c1ccco1,inactive
15,COc1ccc(NS(=O)(=O)c2ccc(C)c(C(=O)NCCCN3CCCC3=O)c2)cc1,"inconclusive [inhibitor, full curve, poor fit]"
16,COc1cccc(N(CC(=O)NC2CCCC2)C(=O)CCC(=O)Nc2cc(C)on2)c1,"inconclusive [inhibitor, full curve, poor fit]"
17,CC(=O)c1c(C)[nH]c(C(=O)OCC(=O)N2CC(C)OC(C)C2)c1C (stereo not given),"inconclusive [inhibitor, full curve, poor fit]"
18,CC1CCN(c2ccc(-c3nc(C(C)C)no3)cc2[N+](=O)[O-])CC1,inactive
19,CCC(=O)NC(Nc1sc2c(c1C(=O)OC)CCC2)C(Cl)(Cl)Cl (stereo not given),"inconclusive [inhibitor, full curve, poor fit]"
20,CO/C=C/C#CC1(O)CCN(C)CC1,"inconclusive [inhibitor, single point]"

row,SMILES,Potency
1,CN1CCC(CNC(=O)Nc2ccccc2)(c2ccccc2)CC1,"inconclusive [inhibitor, partial curve]"
2,O=C(c1ccc2c(=O)n3c(nc2c1)CCCCC3)N1CCN(c2ccccc2F)CC1,"inconclusive [inhibitor, partial curve]"
3,COc1ccc(-c2cc(C(F)F)n3ncc(C(=O)NCCCN4CCCC4=O)c3n2)cc1,"inconclusive [inhibitor, full curve, poor fit]"
4,N/C(=N\OC(=O)c1cccs1)C1(c2ccc(Cl)cc2Cl)CC1,"inconclusive [inhibitor, full curve, poor fit]"
5,CC[C@@H](CO)NC(=O)[C@@H]1C=C2c3cccc4c3c(cn4C)C[C@H]2N(C)C1,inactive
6,O=C(COC(=O)c1cc([N+](=O)[O-])ccc1N1CCOCC1)NC1CCS(=O)(=O)C1 (stereo not given),"inconclusive [inhibitor, partial curve]"
7,COc1ccc(NC2CCCN(C(=O)c3csc(C(C)C)n3)C2)cc1OC (stereo not given),"inconclusive [inhibitor, full curve]"
8,COC(=O)C1=C(C)NC(=O)NC1C1CC=CCC1 (stereo not given),"inconclusive [inhibitor, partial curve, poor fit]"
9,CCCC(=O)Nc1ccccc1-c1nnc(SC)[nH]c1=O,"inconclusive [inhibitor, full curve, poor fit]"
10,Cc1cccc(-c2nc(S(=O)(=O)c3ccc(F)cc3)c(NCCCN3CCOCC3)o2)c1,inactive
11,COc1ccc2nc3oc(C(=O)NCc4ccccc4OC)cc3cc2c1,inactive
12,Cc1ccc(N(C(=O)CNC(=O)c2ccco2)C(C(=O)NC2CCCC2)c2cccnc2)cc1C (stereo not given),"inconclusive [inhibitor, single point]"
13,Cc1ccc(NCc2nc3ccccc3n2CCOc2ccccc2)cc1,"inconclusive [inhibitor, full curve]"
14,CC(=O)Nc1cccc(C(=O)OCC(=O)NCc2ccc(F)cc2)c1,"inconclusive [inhibitor, full curve, poor fit]"
15,CCCOc1cccc(C(=O)Nc2cccc(NC(=O)c3ccco3)c2)c1,"inconclusive [inhibitor, single point]"
16,N#Cc1c(-c2ccc(Cl)cc2)ccnc1N1CCOCC1,"inconclusive [inhibitor, full curve, poor fit]"
17,CCC(Sc1nc(-c2ccccc2)c(C#N)c(=O)[nH]1)C(=O)Nc1cc(C)on1 (stereo not given),"inconclusive [inhibitor, full curve, poor fit]"
18,CCc1nc(SCC(=O)N2CCC(C)CC2)c2c(=O)n(C)c(=O)n(C)c2n1,"inconclusive [inhibitor, full curve]"
19,COc1ccc(N2CCN(C(=O)c3sc4ncn(CC(=O)N5CCCCC5)c(=O)c4c3C)CC2)cc1,"inconclusive [inhibitor, full curve, poor fit]"
20,O=C(CNC(=O)c1ccccc1)N/N=C/c1ccc([N+](=O)[O-])o1,"inconclusive [inhibitor, partial curve, poor fit]"

# Source: PubChem BioAssay AID485294 (National Center for Advancing Translational Sciences (NCATS), 2010)
